The supplement of paper PMC4967469
A lower IC50 marks a more sensitive line; where the fit passes the top or lowest dose, that dose stands as a limit. The AUC spans the tested range (256-fold, ending at the top dose) of the same fit; the more sensitive the line, the further below 1. For part of these data: Any top dose called inferred comes from the curve model; the source does not state it. For part of these data: Drugs with an entry number were screened twice under separate entries, and the two screens often disagree.

Legend:
Assay in all cases: Viability of human cancer cell lines after 72 h of drug (GDSC screen)
CHIR-99021 = compound: Cc1cnc(-c2cnc(NCCNc3ccc(C#N)cn3)nc2-c2ccc(Cl)cc2Cl)[nH]1 [CHIR-99021]
Experimental: (§1)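 Human cancer cell lines in 384-well plates, medium with 10% serum, drug for 72 h over a 256-fold dose range (nine 2-fold or five 4-fold steps up to the top dose). Adherent lines were fixed and stained with the nucleic acid dye Syto60, suspension lines read with resazurin; signal relative to control wells, capped at 0 and 100%. One two-parameter sigmoid per drug and line, fitted in a mixed model over all curves with the slope shared within a line.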

CP466722 = compound: COc1cc2ncnc(-n3nc(-c4ccccn4)nc3N)c2cc1OC [CP466722]; conditions: top dose 16 µM; top dose inferred
Experimental: as §1

GSK269962A = compound: CCn1c(-c2nonc2N)nc2cnc(Oc3cccc(NC(=O)c4ccc(OCCN5CCOCC5)cc4)c3)cc21 [GSK269962A]; conditions: top dose inferred
Experimental: as §1

Zibotentan = compound: COc1nc(C)cnc1NS(=O)(=O)c1cccnc1-c1ccc(-c2nnco2)cc1 [Zibotentan]; conditions: top dose 20 µM; top dose inferred
Experimental: as §1

CMK = compound: Cc1ccc(-c2c(C(=O)CCl)n(CCCO)c3ncnc(N)c23)cc1 [CMK]; conditions: top dose 4 µM; top dose inferred
Experimental: as §1

MPS-1-IN-1 = compound: COc1cc(N2CCC(O)CC2)ccc1Nc1cc(Nc2ccccc2S(=O)(=O)C(C)C)c2cc[nH]c2n1 [MPS-1-IN-1]; conditions: top dose 20 µM; top dose inferred
Experimental: as §1

(5Z)-7-Oxozeaenol = compound: COc1cc(O)c2c(c1)/C=C/C[C@H](O)[C@H](O)C(=O)/C=C\C[C@H](C)OC2=O [(5Z)-7-Oxozeaenol]; conditions: top dose 10 µM; top dose inferred
Experimental: as §1

ABT-888 = compound: C[C@]1(c2nc3c(C(N)=O)cccc3[nH]2)CCCN1 [ABT-888]; conditions: top dose 5 µM; top dose inferred
Experimental: as §1

KU-55933 = compound: O=c1cc(-c2cccc3c2Sc2ccccc2S3)oc(N2CCOCC2)c1 [KU-55933]; conditions: top dose 10 µM
Experimental: as §1

Cytarabine = compound: Nc1ccn([C@@H]2O[C@H](CO)[C@@H](O)[C@@H]2O)c(=O)n1 [Cytarabine]; conditions: top dose 2 µM
Experimental: as §1

Thapsigargin = compound: C/C=C(/C)C(=O)O[C@H]1C(C)=C2[C@H]([C@@H]1OC(=O)CCCCCCC)[C@@](C)(OC(C)=O)C[C@H](OC(=O)CCC)[C@@]1(O)[C@H]2OC(=O)[C@@]1(C)O [Thapsigargin]; conditions: top dose 0.512 µM; top dose inferred
Experimental: as §1

ABT-869 = compound: Cc1ccc(F)c(NC(=O)Nc2ccc(-c3cccc4[nH]nc(N)c34)cc2)c1 [ABT-869]; conditions: top dose 1.024 µM; top dose inferred
Experimental: as §1

QL-X-138 = compound: C=CC(=O)Nc1cc(-n2c(=O)ccc3cnc4ccc(-c5cn[nH]c5)cc4c32)ccc1C [QL-X-138]; conditions: top dose 10.24 µM; top dose inferred
Experimental: as §1

[1] = top dose 2.56 µM, screen: GDSC drug entry 154
[2] = top dose 10 µM, screen: GDSC drug entry 1241, top dose inferred
[3] = top dose 2.5 µM, screen: GDSC drug entry 127
[4] = top dose 5 µM, screen: GDSC drug entry 1192

| Cell Line | AUC (CHIR-99021; [1]) | IC50 (CHIR-99021; [1]) | AUC (CHIR-99021; [2]) | IC50 (CHIR-99021; [2]) | AUC (CP466722) | IC50 (CP466722) | AUC (GSK269962A; [3]) | IC50 (GSK269962A; [3]) | AUC (GSK269962A; [4]) | IC50 (GSK269962A; [4]) | AUC (Zibotentan) | IC50 (Zibotentan) | AUC (CMK) | IC50 (CMK) | AUC (MPS-1-IN-1) | IC50 (MPS-1-IN-1) | AUC ((5Z)-7-Oxozeaenol) | IC50 ((5Z)-7-Oxozeaenol) | AUC (ABT-888) | IC50 (ABT-888) | AUC (KU-55933) | IC50 (KU-55933) | AUC (Cytarabine) | IC50 (Cytarabine) | AUC (Thapsigargin) | IC50 (Thapsigargin) | AUC (ABT-869) | IC50 (ABT-869) | AUC (QL-X-138) | IC50 (QL-X-138) |
| --- | --- | --- | --- | --- | --- | --- | --- | --- | --- | --- | --- | --- | --- | --- | --- | --- | --- | --- | --- | --- | --- | --- | --- | --- | --- | --- | --- | --- | --- | --- |
| HT (B-cell lymphoma, suspension) | 0.99 | > 2560 nM | 0.989 | > 10000 nM | 0.892 | > 16000 nM | 0.915 | > 2500 nM | 0.942 | > 5000 nM | 0.982 | > 20000 nM | 0.93 | > 4000 nM | 0.948 | > 20000 nM | 0.866 | 7730 nM | 0.99 | > 5000 nM | 0.912 | > 10000 nM | 0.953 | > 2000 nM | 0.261 | 7.12 nM | 0.983 | > 1020 nM | 0.769 | 3550 nM |
| HUTU-80 (digestive system, adherent) | 0.987 | > 2560 nM | 0.991 | > 10000 nM | 0.677 | 2830 nM | 0.904 | 2330 nM | 0.92 | > 5000 nM | 0.988 | > 20000 nM | 0.817 | 1770 nM | 0.708 | 4280 nM | 0.682 | 1820 nM | 0.991 | > 5000 nM | 0.978 | > 10000 nM | 0.772 | 645 nM | 0.165 | 3.96 nM | 0.987 | > 1020 nM | 0.333 | 241 nM |
| IMR-5 (neuroblastoma, adherent) | 0.989 | > 2560 nM | 0.976 | > 10000 nM | 0.719 | 3690 nM | 0.99 | > 2500 nM | 0.46 | 248 nM | 0.992 | > 20000 nM | 0.931 | > 4000 nM | 0.846 | 11300 nM | 0.655 | 1560 nM | 0.969 | > 5000 nM | 0.992 | > 10000 nM | 0.992 | > 2000 nM | 0.392 | 17 nM | 0.974 | > 1020 nM | 0.478 | 563 nM |
| IST-SL1 (small cell lung carcinoma, semi-adherent) | 0.987 | > 2560 nM | 0.985 | > 10000 nM | 0.745 | 5160 nM | 0.877 | > 2500 nM | 0.707 | 1230 nM | 0.98 | > 20000 nM | 0.969 | > 4000 nM | 0.902 | > 20000 nM | 0.712 | 2530 nM | 0.987 | > 5000 nM | 0.98 | > 10000 nM | 0.776 | 818 nM | 0.484 | 28.9 nM | 0.967 | > 1020 nM | 0.557 | 923 nM |
| JJN-3 (haematopoietic neoplasm, suspension) | 0.988 | > 2560 nM | 0.975 | > 10000 nM | 0.731 | 3920 nM | 0.973 | > 2500 nM | 0.903 | 4470 nM | 0.991 | > 20000 nM | 0.806 | 1610 nM | 0.889 | 15600 nM | 0.608 | 1170 nM | 0.992 | > 5000 nM | 0.97 | > 10000 nM | 0.315 | 42.4 nM | 0.133 | 3.13 nM | 0.992 | > 1020 nM | 0.447 | 471 nM |
| JM1 (B-cell lymphoma, suspension) | 0.955 | > 2560 nM | 0.845 | 5770 nM | 0.692 | 3160 nM | 0.931 | > 2500 nM | 0.894 | 4530 nM | 0.99 | > 20000 nM | 0.845 | 2300 nM | 0.838 | 10900 nM | 0.689 | 1940 nM | 0.99 | > 5000 nM | 0.958 | > 10000 nM | 0.325 | 44 nM | 0.467 | 26.4 nM | 0.991 | > 1020 nM | 0.507 | 666 nM |
| JVM-3 (lymphoid neoplasm, suspension) | 0.984 | > 2560 nM | 0.98 | > 10000 nM | 0.93 | > 16000 nM | 0.986 | > 2500 nM | 0.893 | > 5000 nM | 0.98 | > 20000 nM | 0.983 | > 4000 nM | 0.817 | 11400 nM | 0.536 | 785 nM | 0.92 | > 5000 nM | 0.873 | 9840 nM | 0.81 | 1070 nM | 0.364 | 13.4 nM | 0.986 | > 1020 nM | 0.869 | 9720 nM |
| JiyoyeP-2003 (Burkitt lymphoma, suspension) | 0.97 | > 2560 nM | 0.987 | > 10000 nM | 0.937 | > 16000 nM | 0.981 | > 2500 nM | 0.981 | > 5000 nM | 0.982 | > 20000 nM | 0.871 | 3000 nM | 0.855 | 12900 nM | 0.888 | 8870 nM | 0.983 | > 5000 nM | 0.96 | > 10000 nM | 0.985 | > 2000 nM | 0.266 | 7.62 nM | 0.99 | > 1020 nM | 0.836 | 5650 nM |
